Consider one molecule from patent US20150299314A1 (TORAY INDUSTRIES, published 2015).

This experiment addresses T1, CAPRIN-1 protein expressed on the cell surface of human cancer cells (human, UniProt Q14444 2-709).
T1 sequence (looked up): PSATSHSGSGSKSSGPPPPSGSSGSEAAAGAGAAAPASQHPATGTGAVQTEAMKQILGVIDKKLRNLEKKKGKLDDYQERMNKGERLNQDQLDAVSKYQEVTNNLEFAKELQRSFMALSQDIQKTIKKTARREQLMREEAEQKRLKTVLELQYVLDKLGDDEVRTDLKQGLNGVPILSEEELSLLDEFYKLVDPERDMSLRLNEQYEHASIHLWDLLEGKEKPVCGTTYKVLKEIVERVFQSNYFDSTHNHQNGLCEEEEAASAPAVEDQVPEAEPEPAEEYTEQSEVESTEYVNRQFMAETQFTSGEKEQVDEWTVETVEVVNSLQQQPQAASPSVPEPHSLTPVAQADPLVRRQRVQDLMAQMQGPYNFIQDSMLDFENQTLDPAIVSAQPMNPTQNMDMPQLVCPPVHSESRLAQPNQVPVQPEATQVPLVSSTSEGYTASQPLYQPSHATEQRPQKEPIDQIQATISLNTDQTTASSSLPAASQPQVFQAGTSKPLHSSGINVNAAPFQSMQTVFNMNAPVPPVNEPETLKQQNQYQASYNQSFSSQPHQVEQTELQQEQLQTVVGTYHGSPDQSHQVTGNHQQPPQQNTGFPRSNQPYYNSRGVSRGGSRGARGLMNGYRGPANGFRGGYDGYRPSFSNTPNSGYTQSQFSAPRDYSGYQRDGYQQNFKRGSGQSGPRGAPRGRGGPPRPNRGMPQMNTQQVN
As to the kind of experiment: cell-based or functional assay.

B1: human-mouse chimeric anti-CAPRIN-1 antibody #33 (antibody, human IgG1, kappa)
heavy: GPGLVKPSQSLSLTCSVTGYSITSGYYWNWIRQFPGNKLEWMGYISYDGSNNYNPSLKNRISITRDTSKNQFFLKLNSVTTEDTATYYCATGMAWFAYWAKDSVTPP[human IgG1 constant region skipped]
light: SPSSLAVSVGEKVTMS[about 80 residues skipped][about 120 residues skipped]
With B1, the “ADCC activity (cytotoxicity, 51Cr release) on TGBC14TKB, antibody 5 ug/mL, human NK cells” value is no less than 20%.
